Laboratory results reported in PubChem BioAssay AID463173 (ICCB-Longwood Screening Facility, Harvard Medical School, 2010).
The whole screen tested about 52,000 compounds, of which about 1,700 (3.3%) were called active. Rule as the data show it: active = survival mostly below about 52% (no sharp cut-off); inactive = mostly above about 56%. This is one part of the list.

Each molecule was assayed on Wild type (assay: growth inhibition of S. aureus wild type versus tarO mutant, primary screen, teichoic acid synthesis inhibitors, RN4220, OD600 (AID 463173)). Conditions: S. aureus RN4220 wild type/DeltatarO growth, OD600, 18 h, hits give low values, screened at 18.75 µg/mL (by protocol).

| Structure (SMILES) | survival |
| --- | --- |
| CC(C)N(Cc1ccccc1)C(=O)Cn1ncc2c3ccccc3n(Cc3ccccc3)c2c1=O | inactive: 96% |
| COc1ccc(CCNC(=O)c2cn(C)c3ccc(S(=O)(=O)N4CCOCC4)cc3c2=O)cc1OC | inactive: 90% |
| Cc1nn(-c2ccc(Cl)cc2)c2nc(-c3cccnc3)cc(C(F)(F)F)c12 | inactive: 80% |
| COc1ccc(NC(=O)C2CCN(S(=O)(=O)c3c(C)noc3/C=C/c3cccs3)CC2)cc1 | inactive: 87% |
| Cc1cccc(Cn2c(SCc3ccc(C(=O)NC4CCCC4)cc3)nc3cccnc32)c1 | inactive: 148% |
| O=C(CSc1ccccc1)NCc1ccc2c(c1)CCN2C(=O)c1ccccc1 | inactive: 57% |
| COc1cccc(-c2noc(CCCC(=O)NCc3ccco3)n2)c1 | inactive: 117% |
| Cc1ccccc1OCCCCn1c(CCNC(=O)C(C)(C)C)nc2ccccc21 | inactive: 65% |
| COc1ccc(OC)c(S(=O)(=O)NCC(c2ccco2)S(=O)(=O)c2ccccc2)c1 (stereo not given) | inactive: 75% |
| N#Cc1ccc(NC(=O)CCC(=O)O)cc1 | inactive: 99% |
| COc1ccc(OC)c(CNC(=O)c2ccc(NC(=O)c3nsc4ccccc34)cc2)c1 | inactive: 87% |
| COC(=O)c1ccccc1NC(=O)c1ccc(-c2nc(CSc3ccc(C)cc3)c(C)o2)cc1 | inactive: 81% |
| CN(Cc1ccccc1)C(=O)CCS(=O)(=O)c1ccc2c(c1)oc(=O)n2C | inactive: 70% |
| CCn1cc(S(=O)(=O)c2cccc(Cl)c2)c(=O)c2cc(F)c(N3CCN(C)CC3)cc21 | inactive: 56% |
| COc1ccccc1N1CCN(Cc2nnc(-c3ccccc3C)o2)CC1 | inactive: 82% |
| O=S(=O)(Nc1ccc(C(F)(F)F)cc1)c1ccc2c(c1)OCCO2 | inactive: 68% |
| COCCCn1c(=O)c2sccc2n2c(CCCC(=O)Nc3cccc(C(F)(F)F)c3)nnc12 | inactive: 87% |
| O=C(NCCCc1nc2ccccc2n1Cc1cccc(Cl)c1)C1CCCCC1 | inactive: 97% |
| O=C(c1ccc2c(c1)N(Cc1ccc(Cl)cc1)C(=O)c1ccccc1S2=O)N1CCC(Cc2ccccc2)CC1 (stereo not given) | inactive: 86% |
| CCOC(=O)c1cccc(NC(=O)c2ccc3nc(CCc4ccccc4)oc3c2)c1 | inactive: 82% |
| Nc1cc(N)nc(SCC(=O)c2ccccc2)n1 | inactive: 108% |
| Cc1ccccc1OCC(=O)Nc1ccc2nc(SCC(N)=O)sc2c1 | inactive: 77% |
| COC(=O)c1cn(CC(=O)NC2CCCCCC2)c2ccccc12 | inactive: 114% |

| Structure (SMILES) | survival |
| --- | --- |
| CCCCOC(=O)c1ccc(NC(=O)c2csnn2)cc1 | inactive: 79% |
| CC1=C(C(=O)Nc2ccccc2)C(c2ccc[nH]2)n2ncnc2N1 (stereo not given) | active: -3% |
| COC(=O)c1ccc(NC(=O)C(=O)NCC(c2cccnc2)N2CCc3ccccc32)cc1 (stereo not given) | inactive: 47% |
| Cc1cccc(C)c1NC(=O)CSc1nc2ccccc2c2nc(CCc3c(C)n[nH]c3C)nn12 | inactive: 69% |
| CCCOc1ccc(C(=O)Nc2ccc3oc(-c4ccc(N(C)C)cc4)nc3c2)cc1 | inactive: 91% |
| Cc1c(NC(=O)c2sc3ccccc3c2Cl)cccc1-c1nc2ccccc2o1 | inactive: 84% |
| Cc1c(Cl)cccc1NC(=O)Cn1nnc(-c2nc(-c3ccccc3)no2)c1N | inactive: 55% |
| Cn1c(C(=O)N(Cc2ccccc2)C(C)(C)C)cc2sccc21 | inactive: 109% |
| CCC(C(=O)NC1CCCC1)N(C(=O)Cn1nnc(-c2cccs2)n1)c1cnc2ccccc2c1 (stereo not given) | inactive: 106% |
| O=C1OCc2ccc(NC(=O)C3CCCCC3)cc21 | inactive: 109% |
| COc1ccc(S(=O)(=O)N(Cc2cc3cc4c(cc3[nH]c2=O)OCCO4)C2CCCC2)cc1 | inactive: 106% |
| CCn1cc(C(=O)NCCc2ccc(C)cc2)c(=O)c2cc(S(=O)(=O)N3CCC(C)CC3)ccc21 | inactive: 76% |
| CCCOc1ccc(OC(=O)c2cn(-c3ccc(OC)cc3)c(=O)c3ccccc23)cc1 | inactive: 74% |
| COc1cc(NC(=O)c2nc3ccccc3n(C)c2=O)cc(OC)c1OC | inactive: 73% |
| COc1cccc(-c2nn3c(=O)cc(CN4CCN(C(=O)/C=C/c5ccccc5)CC4)nc3s2)c1 | inactive: 80% |
| COc1ccc(NC(=O)Cn2nc(C(F)(F)F)c3c2CCCC3)cc1OC | inactive: 64% |
| CCOc1ccccc1NC(=O)C1=C(C)Nc2ncnn2C1c1cccs1 (stereo not given) | inactive: 32% |
| Cc1cccc(N2CCN(C(=O)c3ccc4c(Cl)c5c(nc4c3)CCCC5)CC2)c1C | inactive: 88% |
| O=C(OCc1cc(=O)n2nc(C3CC3)sc2n1)c1ccccc1Cl | inactive: 77% |
| COc1ccc(CNC(=O)C2=CC(c3cccc(OC)c3)=NS(=O)(=O)N2C)cc1 | inactive: 82% |
| CC(=O)c1cccc(NC(=O)c2cc(C)nc3c2c(C)nn3-c2cccc(Cl)c2C)c1 | inactive: 69% |
| Cc1ccc(CCNC(=O)CCS(=O)(=O)c2cc3c(cc2Cl)NC(=O)CO3)cc1 | inactive: 91% |
| CC(C)NC(=O)CN1C(=O)c2cccnc2Sc2ccccc21 | inactive: 82% |

| Structure (SMILES) | survival |
| --- | --- |
| Cc1ccc(-c2nc(-c3cc4cccc(OCc5ccccc5F)c4oc3=O)no2)cc1 | inactive: 69% |
| COC(=O)c1c(-c2ccc(Cl)cc2)noc1N1CCN(c2ccc(F)cc2)CC1 | inactive: 68% |
| CC(C)c1cc(C(=O)NCc2ccccc2)no1 | inactive: 79% |
| CCOc1ccc(CNC(=O)CCS(=O)(=O)c2ccc3c(c2)oc(=O)n3C)cc1 | inactive: 75% |
| COc1ccc(NC(=O)c2csnn2)cc1 | inactive: 111% |
| Cc1ccc(NC(=O)Cn2c(=O)n(Cc3ccc(C(=O)NCc4ccc5c(c4)OCO5)cc3)c(=O)c3ccccc32)cc1 | inactive: 98% |
| COc1ccccc1N1CCN(c2csc3ccccc3c2=O)CC1 | inactive: 80% |
| Cc1cccc(C)c1Nc1c(-c2ccsc2)nc2cccc(C)n12 | inactive: 32% |
| COc1cccc(NC(=O)Cn2c(-c3nonc3N)nc3ccccc32)c1 | inactive: 103% |
| Cc1cccc(NC(=O)N2CCN3CCCCC3C2)c1C (stereo not given) | inactive: 68% |
| COc1cc(NC(=O)CCS(=O)(=O)c2ccc3c(c2)n(C)c(=O)c(=O)n3C)cc(OC)c1 | inactive: 93% |
| CCOc1ccc(/C=C/c2nc(C#N)c(N3CCC(C)CC3)o2)cc1 | inactive: 116% |
| COc1ccccc1CNC(=O)CCCCn1c(=O)c2ccccc2n(CC(=O)Nc2cccc(Cl)c2)c1=O | inactive: 85% |
| COC(=O)c1cc2oc3ccccc3c2n1Cc1ccccc1Cl | inactive: 60% |
| CCc1ccc(Sc2cc(C(=O)NCCCN3CCC(C)CC3)c3ccccc3n2)cc1 | inactive: 68% |
| N#CC(C#N)=C(C#N)c1cc2c([nH]1)CCCC2 | inactive: 95% |
| O=c1c(-c2cc(-c3ccccc3)nc3c2COc2ccccc2-3)coc2ccc(Cl)cc12 | inactive: 126% |
| COc1ccc(CNC(=O)C(=O)Nc2cccc(C)c2C)cc1 | inactive: 91% |
| Cc1ccc(-n2ncc3c(N4CCN(c5ccc(F)cc5)CC4)ncnc32)cc1 | inactive: 83% |
| COc1ccc2oc(-c3ccc(NC(=O)c4ccc(Cl)cc4Cl)cc3)nc2c1 | inactive: 76% |
| CCc1ccc(NC(=O)C2CCCN(c3nnc(C)c4c(C)n(-c5ccccc5)nc34)C2)cc1 (stereo not given) | inactive: 68% |
| O=C(Nc1cc(Cl)ccc1Cl)c1cc(S(=O)(=O)N2CCc3ccccc3C2)ccc1F | inactive: 78% |
| COc1ccc(C)cc1NC(=O)c1c(C)nc2ccccn12 | inactive: 102% |

| Structure (SMILES) | survival |
| --- | --- |
| CC1CC(NNc2ccc(Br)cc2)NC(=S)N1 (stereo not given) | inactive: 118% |
| O=C(Cn1c(-c2cccs2)cc2ccccc21)N1CCN(c2ccc(F)cc2)CC1 | inactive: 80% |
| COC(=O)c1c(-c2cccs2)csc1NC(=O)c1ccc(C)cc1 | inactive: 79% |
| Cc1ccc(CNS(=O)(=O)c2ccc3c(c2)CC(C)N3C(=O)C2CCC2)cc1 (stereo not given) | inactive: 97% |
| O=C(O)CC1SC(=O)N(c2ccccc2)C1=O (stereo not given) | inactive: 109% |
| COc1ccc(OC)c(C(=O)CN2C(=O)N(c3ccc(C)cc3)S(=O)(=O)c3ccccc32)c1 | inactive: 82% |
| Cc1cc(Br)ccc1NC(=O)c1c(C)oc2ncnc(N3CCCCC3)c12 | inactive: 73% |
| Cc1ccccc1N1CC(c2nc3ccccc3n2Cc2ccc(Br)cc2)CC1=O (stereo not given) | inactive: 32% |
| CCOc1ccc(CNC(=O)C2CCN(C(=O)N3CC(CC)Oc4ccc(C)cc43)CC2)cc1OC (stereo not given) | inactive: 88% |
| Cc1cc(NC(=O)c2cc(-c3ccc(Cl)c(Cl)c3)on2)n(-c2ccccc2)n1 | inactive: 105% |
| CCOC(=O)CSc1nc2sc3c(c2c(=O)n1-c1ccc(OC)cc1)CC(C(C)C)OC3 (stereo not given) | inactive: 77% |
| COc1ccccc1NC(=O)Cn1c(=O)n(CC2CCC(C(=O)NCCc3ccccc3)CC2)c(=O)c2ccccc21 (stereo not given) | inactive: 58% |
| CCOC(=O)N1CCc2c(sc3c2C(=O)NC(c2ccc(C(=O)OC)cc2)N3)C1 (stereo not given) | inactive: 69% |
| Cc1nnc(SCC(=O)Nc2ccc(N(C)C)cc2)[nH]c1=O | inactive: 92% |
| CCc1ccc(NC(=O)Cn2c(=O)n(CCCC(=O)NCCc3ccc(OC)c(OC)c3)c(=O)c3ccccc32)cc1 | inactive: 94% |
| CCN(CC)CCOC(=O)c1ccc(NC(=O)c2cc3cc(OC)ccc3oc2=O)cc1 | inactive: 72% |
| COCCNC(=O)CN1C(=O)COc2ccc(S(=O)(=O)N3CCCC3)cc21 | inactive: 118% |
| CCOc1ccc(Sc2cc(C(=O)NCc3ccccc3Cl)c3ccccc3n2)cc1 | inactive: 80% |
| CC(C)C(=O)c1cn(CC(=O)N2CCCC2)c2ccccc12 | inactive: 105% |
| O=C(CCc1ccccc1)N/N=C/c1ccco1 | inactive: 93% |
| c1ccc(CCn2nnnc2C(c2cccnc2)N2CCc3ccccc32)cc1 (stereo not given) | inactive: 127% |
